Experimental findings from the supplement of paper PMC4604168 (melanoma cell lines) are described below.

Some of the results follow. Repeats are few or missing, and single values can be far off.
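Note: cells treated in 1,536-well plates, then fixed and DAPI-stained, with nuclei counted from automated high-throughput microscope images.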

In the experiment the test system is A375. Description: cell count relative to DMSO control; melanoma cells; higher = more viable cells. The settings on record: library dose: standard library concentration; 72 h.
`O=C(O)[C@@H]1[O][Sb](=[O])([O][Sb]2(=[O])[O][C@H]([C@H](O)CO)[C@H](O)[C@H](C(=O)O)[O]2)[O][C@H]([C@H](O)CO)[C@@H]1O` (stereo not given in full) [stibogluconate] + Cn1c(Nc2ccc(C(F)(F)F)cc2)nc2cc(Oc3ccnc(-c4ncc(C(F)(F)F)[nH]4)c3)ccc21 [CHIR265] (first compound 10 µM, partner dose 0.4 µM) showed a cell count of 68.1%. In the case of `Cc1cc(N2CCOCC2)cc2[nH]c(-c3c(NC[C@@H](O)c4cccc(Cl)c4)cc[nH]c3=O)nc12` + O=C(O)c1ccc(-c2c[nH]c3ncc(-c4ccccc4)cc23)cc1C1CCCC1 [GSK650394] (first compound 1 µM, partner dose 0.8 µM) it was 88.7%; in that of `O=C(Nc1cc(C(F)(F)F)cc(C(F)(F)F)c1)c1cc(Cl)ccc1O` + O=C(O)[C@@H]1[O][Sb](=[O])([O][Sb]2(=[O])[O][C@H]([C@H](O)CO)[C@H](O)[C@H](C(=O)O)[O]2)[O][C@H]([C@H](O)CO)[C@@H]1O [stibogluconate] (first compound 0.08 µM, partner dose 10 µM), 91.4%; in that of `O=C(Nc1cc(C(F)(F)F)cc(C(F)(F)F)c1)c1cc(Cl)ccc1O` + Cc1cc([N+](=O)[O-])ccc1NS(=O)(=O)c1cc(Cl)ccc1Cl [FH535] (first compound 0.08 µM, partner dose 5 µM), 102%. On to `O=C(Nc1cc(C(F)(F)F)cc(C(F)(F)F)c1)c1cc(Cl)ccc1O` + Cn1cncc1[C@@](N)(c1ccc(Cl)cc1)c1ccc2c(c1)c(-c1cccc(Cl)c1)cc(=O)n2C [tipifarnib] (first compound 0.08 µM, partner dose 0.05 µM), for which the cell count is 113%.
